# Measured values from the RNAGym collection of RNA variant scans (doi:10.7554/elife.90254).
# Read counts are not given, so values of variants with three or more changes are uncertain.
# B1: LINE1-mini (parent)
# chain: GGCAGAGCUCAACACAGCGUGGCAAAGUGGCUGUGGCUAGACUGCC
# Variants of: B1
# Assay: self-cleavage, relative activity (ratio to wild type); higher = more cleavage; in vitro, sequencing; the parent is a self-cleaving ribozyme
row,Variant,self-cleavage
1,A26U G35A C42A,0.01
2,C3G A11C A16C C23A A26U,0.01
3,C8G A12U A39G,0.13
4,C23G A24C C46G,0.25
5,C10U G36C G44U,0.08
6,G5U G29U A39C,0.04
7,C3G G7A G29C,0.12
8,A4C U20C U34G,0.03
9,A26U C31A C45A,0.09
10,U9G G17A G36A C46U,0.05
11,G1C A25C U28C,0.05
12,G7U A14C C18U G21C A26C,0.02
13,G2C A11C C31G,0.02
14,G5U U34A U38G,0.01
15,G17A G29C G33U U34C U38G,0.02
16,G1U C13A A16U A26G C42U,0.15
17,G5C G21A G44A,0.04
18,A4U C8A A16U A41G,0.02
19,A25U G33A A39G,0.06
20,G2A U32G C45G C46G,0.1
21,G2C G17C A41C,0.08

row,Variant,self-cleavage
1,G1C G19U G21A G33C,0
2,G2U C8G G29U G30C,0.04
3,G7U C10U A24C G36A,0.02
4,C10G C13U G27U C31U C37G,0
5,A16C G17A C37U,0.08
6,G22U C23U C31A,0.54
7,G2C U38A A41U,0.08
8,A12G G29C U38C,0
9,U9A C13A G21A G27U C46A,0.18
10,G1C G2C G5C G22U G35A,0.01
11,G7A G29U G36U A39G,0.02
12,G1C C23U U34A,0.07
13,A14C G36U A41G,0.07
14,C3A C8U G40A,0.51
15,G1U C8G C10U U38A,0.04
16,G7U A12G G27A,0.01
17,G1A C8A C31U G44A,0.37
18,G1U C3A U34A A39U,0.02
19,G2C C13A A25C G30U G36A,0.19
20,U32G C37G U38A,0.03
21,C3A G19U G27C U34G C42G,0.07

row,Variant,self-cleavage
1,U9G U32C G44A,0.08
2,C10U A16C U32A,0.03
3,A6U C13U G33U C45A,0.13
4,C23A U34C G44U,0.05
5,G2A G17C U20G A41C,0.02
6,C3U G5C U32G,0.1
7,G19C G21U C42U,0.21
8,G2A C15A C23G G35C G44C,0
9,G17U G33A C42U,0.02
10,G2A A6U C8A U34A,0.41
11,G5U C23G A41U,0.09
12,C15U G19C A39C C46U,0.14
13,A11U G19U A24C,0.07
14,A4U C13A A41U,0.07
15,A16U C18A G21C C23A U32A G40A G44U,0.01
16,G7C A11G A12G G17C,0.01
17,A24U A26C G30A U32C,0.06
18,G1A G30U G33C G40A,0.05
19,G2C A11C U38G,0
20,G2U U9C G21U A24U G27A U34A C46A,0.01
21,U9C C10U C15A U38A,0.02

row,Variant,self-cleavage
1,C8A G27U G30U A39C,0.27
2,G17U G21U G22U,0.5
3,C10A A14G G35C,0
4,G5C G27U U34C G40C C42A,0.06
5,U28G U32A G35U,0.16
6,A26G C31A U43C,0.02
7,C8U A14C G22C G29A,0.07
8,C31U G40U C45U,0
9,U20A G35A A41C,0.04
10,C3U G30C C31G U32G,0.04
11,A12G G22A G27U G44C,0.05
12,C10A G22C G29U U38C A39U,0.18
13,G5U A14U G36A G40A,0.05
14,G33C G36C C37A,0.04
15,C3U G5A U28G,0.15
16,U9C G36U U38G,0.01
17,A6C A24G G30C C31G C42A,0.04
18,A6U G21A G36C,0.17
19,C10U A14G C31G U32A,0.01
20,G5C C15U G21A U38G A41U,0.02
21,G7A A11G G17A G29U C46G,0.02
